From PubChem BioAssay AID588453 (National Center for Advancing Translational Sciences (NCATS), 2011)
The campaign covered roughly 390,000 compounds. About 4,000 (1%) were called active. The inconclusive results got no clear call from the source; some entries with a clear call stand among them for comparison. Calls follow the shape of the dose curve; as a rule, active = well fitted inhibition curve with a large enough effect; inconclusive = small, poorly fitted or top-dose-only effect; inactive = no such curve, though single readings can be large or run the other way. A potency beside an inconclusive call is a rough fit, not a confirmed value.
Also: nearly all actives have a fitted effect of over 65% in size.
Potency is read from the fitted curve at half-maximal effect; tags tell the direction and shape of the fitted curve.

These molecules were tested against Thioredoxin reductase 1, cytoplasmic (Rattus norvegicus) (UniProt O89049) (assay: qHTS Assay for Inhibitors of Mammalian Selenoprotein Thioredoxin Reductase 1 (TrxR1): qHTS). Conditions: recombinant rTrxR1, NADPH fluorescence consumption, selenite substrate; series mostly up to 114 µM.
UniProt O89049, sequence (O89049 whole entry, looked up): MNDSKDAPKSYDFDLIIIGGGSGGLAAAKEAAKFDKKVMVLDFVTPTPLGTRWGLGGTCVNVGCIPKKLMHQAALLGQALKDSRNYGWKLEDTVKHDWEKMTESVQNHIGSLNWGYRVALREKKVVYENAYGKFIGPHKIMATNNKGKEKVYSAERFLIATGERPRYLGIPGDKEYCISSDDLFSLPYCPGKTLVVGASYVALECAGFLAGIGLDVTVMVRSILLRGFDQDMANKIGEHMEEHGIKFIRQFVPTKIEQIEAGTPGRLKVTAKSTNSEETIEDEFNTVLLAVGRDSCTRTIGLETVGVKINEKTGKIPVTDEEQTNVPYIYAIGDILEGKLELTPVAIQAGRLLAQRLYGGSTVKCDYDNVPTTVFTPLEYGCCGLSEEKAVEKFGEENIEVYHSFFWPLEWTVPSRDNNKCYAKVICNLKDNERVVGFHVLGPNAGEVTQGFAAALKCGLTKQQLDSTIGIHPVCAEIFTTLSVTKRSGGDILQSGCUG
How it was run: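 Rat TrxR1 (90 nM in the dispensed reagent) was pre-reduced with 400 uM NADPH for 5 min at room temperature, then incubated with compound for 15 min. After 400 uM selenite was added, NADPH fluorescence (Ex 340/Em 450 nm) was followed for 8 min.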
In the case of CC1(c2ccc(OC(F)F)cc2)NC(=O)N(/N=C/c2c(O)ccc3ccccc23)C1=O (configuration not stated), the Potency was “inactive”.
In the case of COc1ccc2c(c1)c(=O)c(S(=O)(=O)c1ccc(Cl)cc1)cn2C, the Potency was “inactive”.
For O=C(CCS(=O)(=O)c1ccccc1)Nc1nc2c(s1)COc1ccccc1-2, the Potency was inconclusive: 20 µM [inhibitor, single point].
For COCCN=C1Sc2nc3c(C)cccc3cc2CN1Cc1ccco1, the Potency was inconclusive: 15.8 µM [inhibitor, single point].
CCCCCC(=O)NC(=S)Nc1ccc(N2CCOCC2)cc1 was tested, and the Potency was inconclusive: 89.1 µM [inhibitor, partial curve, poor fit].
CN(C)C(CNC(=O)CSc1nc2ccccc2c(=O)n1Cc1ccco1)c1ccccc1 (configuration not stated) was tested, and the Potency was inconclusive: 35.5 µM [inhibitor, single point].
O=C(c1cnn(C(=O)c2cccc(S(=O)(=O)N3CCOCC3)c2)c1)c1cc(Cl)cc(Cl)c1O was tested, and the Potency was inconclusive: 79.4 µM [inhibitor, single point].
CCc1cc(=O)oc2c(CN3CCCC3)c(O)c(Cl)cc12 was tested, and the Potency was inconclusive: 63.1 µM [inhibitor, single point].
With Cc1ccc(NC(=O)C2Cc3ccccc3CN2C(=O)c2ccco2)cc1S(=O)(=O)N(C)C (configuration not stated) the Potency was inconclusive: 35.5 µM [inhibitor, partial curve].
In the case of Cc1ccc(N=Nc2cc(C)ccc2N)cc1, the Potency was “inactive”.
O=C(O)CCc1ccc(-c2cccs2)o1 was tested, and the Potency was inconclusive: 50.1 µM [inhibitor, single point].
For CC(=O)N1c2ccc(S(=O)(=O)NCC3CCC(C(=O)Nc4ncccc4C)CC3)cc2CC1C (configuration not stated), the Potency was “inactive”.
CCn1c(=O)c2c3c(sc2n2c(=S)[nH]nc12)CCC3 was tested, and the Potency was inconclusive: 12.6 µM [inhibitor, partial curve, poor fit].
With Clc1ccccc1CONc1ncnc2nonc12 the Potency was “inactive”.
In the case of CCOC(=O)N(CC)OC(=O)Nc1ccc(Cl)cc1, the Potency was inconclusive: 50.1 µM [inhibitor, partial curve, poor fit].
CCOc1ccc(C2/C(=C(\O)c3ccc4c(c3)OCCO4)C(=O)C(=O)N2CCCN2CCOCC2)cc1OC (configuration not stated) was tested, and the Potency was active: 50.1 µM.
With N/C(=N\OC(=O)N1CCOCC1)c1ccc(Cl)cc1 the Potency was “inactive”.
In the case of COC(=O)C1=C(Nc2ccccc2NC(=O)CCCC(=O)O)CSC1, the Potency was “inactive”.
N#CCC(=O)N/N=C/c1ccc(Sc2nc3ccccc3s2)o1 was tested, and the Potency was inconclusive: 20 µM [inhibitor, partial curve].
With Cc1cc(C)nc(SCc2cc(=O)c(OC(=O)c3ccc(S(=O)(=O)N4CCCC4)cc3)co2)n1 the Potency was active: 15.8 µM.
Cc1c(C(=O)CN2CCOCC2)[nH]c2ccccc12 was tested, and the Potency was inconclusive: 79.4 µM [inhibitor, single point].
CC[N+]1(CC(=O)c2ccc(OC)cc2)CCCCC1 was tested, and the Potency was “inactive”.
For COc1ccc(Nc2cc(C(=O)NCCc3ccc(C)cc3)c3ccccc3n2)c(OC)c1, the Potency was “inactive”.
In the case of Cc1cc(Cl)ccc1NC(=S)NCCc1ccc(S(N)(=O)=O)cc1, the Potency was inconclusive: 25.1 µM [inhibitor, partial curve, poor fit].
With S=C(S)OC1CC2CC1C1CCCC21 (configuration not stated) the Potency was inconclusive: 3.55 µM [inhibitor, partial curve, poor fit].
With N#CC1=C(SCC(=O)c2ccc(Cl)cc2)NC2=C(C(=O)CCC2)C1c1ccco1 (configuration not stated) the Potency was inconclusive: 20 µM [inhibitor, single point].
In the case of Cc1cc(C)c2c(N)c(C(=O)c3ccc(Cl)cc3)sc2n1, the Potency was inconclusive: 4.47 µM [inhibitor, partial curve, poor fit].
With CN1N=C(C(=O)N2CCc3c([nH]c4ccccc34)C2c2ccccc2Cl)CCC1=O (configuration not stated) the Potency was “inactive”.
N#C/C(=C/c1ccc(N2CCCCC2)o1)C(=O)NCCc1c[nH]c2ccccc12 was tested, and the Potency was inconclusive: 15.8 µM [inhibitor, full curve, poor fit].
CCOc1cc(C2NN=C(c3ccc(C)cc3)S2)ccc1O (configuration not stated) was tested, and the Potency was inconclusive: 79.4 µM [inhibitor, single point].
CCOC(=O)c1cc2c(=O)n3ccccc3nc2n(Cc2ccco2)c1=NC(=O)c1cccnc1 was tested, and the Potency was inconclusive: 0.501 µM [inhibitor, full curve, poor fit].
For O=[N+]([O-])c1ccc(Cl)c(S(=O)(=O)/N=C(/Sc2ccc(Br)cc2)c2ccccc2)c1, the Potency was “inactive”.
CCN(C(=O)c1cc(Cl)ccc1OC)C1CCCCC1 was tested, and the Potency was inconclusive: 39.8 µM [inhibitor, single point].
For CC1(C)Cc2c(C#N)c(N)sc(=S)c2CO1, the Potency was inconclusive: 89.1 µM [inhibitor, partial curve, poor fit].
COCCCn1c(SCC(=O)Nc2sc3c(c2C#N)CCCC3)nnc1-c1ccncc1 was tested, and the Potency was inconclusive: 8.91 µM [inhibitor, partial curve, poor fit].
With COc1ccccc1/C=c1\sc2nc(-c3ccco3)nn2c1=O the Potency was inconclusive: 63.1 µM [inhibitor, single point].
COc1cc(C#Cc2c(-c3ccccc3OC)oc3ccccc23)cc(OC)c1 was tested, and the Potency was inconclusive: 22.4 µM [inhibitor, full curve].
CCOC(=O)C1CCN(Cc2cc(Cl)c3ccccc3c2O)CC1 was tested, and the Potency was inconclusive: 56.2 µM [inhibitor, partial curve].
With O=C(O)c1cc(-c2cccc(Cl)c2)nc2nc(N3CCCCC3)sc12 the Potency was inconclusive: 89.1 µM [inhibitor, single point].
For COc1ccc(CN2CCNC(=O)C2CC(=O)N(C)Cc2nccs2)cc1OC (configuration not stated), the Potency was inconclusive: 89.1 µM [inhibitor, partial curve, poor fit].
For CCC(=O)Oc1oc(-c2ccccc2)nc1C=Nc1ccccc1OC, the Potency was inconclusive: 31.6 µM [inhibitor, partial curve].
COc1ccc(CCN2C(=O)CC(Sc3ncccc3C(=O)O)C2=O)cc1OC (configuration not stated) was tested, and the Potency was inconclusive: 44.7 µM [inhibitor, partial curve, poor fit].
In the case of Cc1[nH]n(-c2ccccc2)c(=O)c1C(C[N+](=O)[O-])c1ccc(F)cc1 (configuration not stated), the Potency was inconclusive: 70.8 µM [inhibitor, partial curve, poor fit].
For CCC(C)NC(=O)c1cn(CC)c2cc(N3CCN(C(=O)c4ccco4)CC3)c(F)cc2c1=O (configuration not stated), the Potency was inconclusive: 50.1 µM [inhibitor, partial curve].
With COC(=O)C1=C(C)NC(=O)NC1c1ccc([N+](=O)[O-])o1 (configuration not stated) the Potency was inconclusive: 70.8 µM [inhibitor, single point].
In the case of NC(N)=NS(=O)(=O)c1ccc(NC(=S)NC(=O)c2ccc(Br)cc2)cc1, the Potency was inconclusive: 25.1 µM [inhibitor, partial curve, poor fit].
With Cc1ccc(N=Cc2cc(Cl)cc(Cl)c2O)nc1 the Potency was inconclusive: 89.1 µM [inhibitor, single point].
In the case of c1cnc2ccc(C(c3nnnn3C3CCCCC3)N3CCN4CCCC4C3)cc2c1 (configuration not stated), the Potency was inconclusive: 89.1 µM [inhibitor, single point].
COC(=O)c1ccc2c(=O)n(CCCCCC(=O)N3CCN(c4ccc(OC)cc4)CC3)c(=O)[nH]c2c1 was tested, and the Potency was “inactive”.
For CCCOc1ccc(/C=C2/C(=O)ON=C2C)cc1OCC, the Potency was inconclusive: 39.8 µM [inhibitor, full curve, poor fit].
For COc1ccc(NC(=O)CN2CCCN(S(=O)(=O)c3ccc(F)cc3)CC2)cc1, the Potency was inconclusive: 11.2 µM [inhibitor, partial curve, poor fit].
For COC(=O)c1ccc(-c2csc(NC(=O)c3ccc(S(=O)(=O)N4CCc5ccccc5C4)cc3)n2)cc1, the Potency was “inactive”.
In the case of O=C(CCNS(=O)(=O)c1ccc(F)c(Cl)c1)NCc1ccccc1F, the Potency was inconclusive: 70.8 µM [inhibitor, single point].
For CCN(Cc1ccccc1)Cc1c(O)ccc2c(=O)c(-c3ccccc3Cl)c(C(F)(F)F)oc12, the Potency was “inactive”.
N#CC1=C(N)N(c2ccccc2)C(c2cccc([N+](=O)[O-])c2)C1(C#N)C#N (configuration not stated) was tested, and the Potency was inconclusive: 12.6 µM [inhibitor, partial curve, poor fit].
For COc1cccc(CNC(=O)C2CCN(c3nnc(-n4c(C)ccc4C)s3)CC2)c1, the Potency was “inactive”.
With Cc1ccc(-c2cc(C(=O)NCCN3CCOCC3)c3ccccc3n2)o1 the Potency was inconclusive: 44.7 µM [inhibitor, partial curve, poor fit].
In the case of CCN1CCN(C(c2cccc(F)c2)c2c(O)cc(C)n(Cc3ccco3)c2=O)CC1 (configuration not stated), the Potency was inconclusive: 11.2 µM [inhibitor, partial curve, poor fit].
For O=[N+]([O-])c1cc(C(F)(F)F)cc([N+](=O)[O-])c1NCCNC(=S)Nc1ccc(Cl)c(Cl)c1, the Potency was “inactive”.
With O=C(COC(=O)/C=C/c1ccco1)NCc1ccc(Cl)cc1 the Potency was active: 79.4 µM.
With COc1ccc(-c2nnc(C)c3nocc23)cc1 the Potency was active: 20 µM.
For CCCCN(CC)Cc1ccc(CNC(=O)Nc2ccccc2)o1, the Potency was inconclusive: 89.1 µM [inhibitor, single point].
For c1coc(-c2nc3nc4ccccc4n3nc2-c2ccco2)c1, the Potency was inconclusive: 11.2 µM [inhibitor, partial curve, poor fit].
Cc1ccc(S(=O)(=O)N2CCOCC2)cc1C(=O)NCc1ccco1 was tested, and the Potency was inconclusive: 31.6 µM [inhibitor, single point].
COC(=O)C1=C(Nc2ccccc2NC(=O)c2ccccc2C(=O)O)CSC1 was tested, and the Potency was “inactive”.
COC(=O)c1[nH]c2cc(OC)c(OC)cc2c1NC(=O)Oc1ccccc1 was tested, and the Potency was “inactive”.
For CC(C)(C)n1ncc2c(=O)n(Cc3ccccc3SC(F)(F)F)cnc21, the Potency was “inactive”.
